According to PubChem BioAssay AID651820 (National Center for Advancing Translational Sciences (NCATS), 2012):
Several values for one entry are separate records, joined by “and”; a condition that tells them apart may be missing. Equal entries are not always repeated. Screen size: about 340,000 compounds; about 12,000 (3.5%) were called active. The shares of active, inactive and inconclusive entries below differ from those in the screen. Calls follow the shape of the dose curve; as a rule, active = well fitted inhibition curve with a large enough effect; inconclusive = small, poorly fitted or top-dose-only effect, or another doubt; inactive = no such curve, though single readings can be large or run the other way. Potencies of inconclusive entries are doubtful fits and often do not repeat.
Potency is read from the fitted curve at half-maximal effect; tags tell the direction and shape of the fitted curve.

Test: qHTS Assay for Inhibitors of Hepatitis C Virus (HCV)
Conditions: Huh7.5.1 HCVcc-Cre (HCVcc is cell-culture hepatitis C virus) infection, luciferase reporter, 44 h; series mostly up to 41.8 µM
Outline: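 Whole-lifecycle infectious HCVcc-Cre system; cells 1,000/well, compound then virus (~0.5 moi) added 4 h after plating, 44 h culture. Luciferase read 15 sec following 15 min substrate incubation, room temp.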
In the case of COc1ccc(-c2cnnc(N/N=C/c3c(C)nn(-c4ccccc4)c3Cl)n2)cc1, the Potency is reported as “inactive”. For COc1cccc(C(=O)OCC(=O)NC(C)CCc2ccccc2)c1O (stereo not drawn), the Potency was “inactive”. For Cc1cc(NC(=O)CCC(=O)N(Cc2ccccc2)C2(C(=O)NC3CCCCC3)CCCC2)no1, the Potency was “inactive”. In the case of COC(=O)c1ccsc1-n1cc(C#N)c(=O)n(C)c1=O, the Potency is reported as inconclusive: 8.91 µM [inhibitor, partial curve, poor fit]. For O=C(O)CNC(=S)N(Cc1ccc(F)cc1)C1CCCCC1, the Potency was inconclusive: 3.16 µM [inhibitor, single point]. For CCCC1OC23CCCCC2C(C#N)(C(=N)O3)C1(C#N)C#N (stereo not drawn), the Potency was inconclusive: 31.6 µM [inhibitor, single point]. In the case of CCc1noc(C)c1C(=O)NNC(=O)c1ccccc1Cl, the Potency is reported as “inactive”. For Cc1nc2c(sc(=S)n2Cc2ccco2)c(=O)n1CC(=O)Nc1ccccc1Cl, the Potency was inconclusive: 5.01 µM [inhibitor, full curve]. For Cc1ccc(OCC(=O)N2CCCC(N3CCN(c4ccc(F)cc4)CC3)C2)cc1 (stereo not drawn), the Potency was inconclusive: 31.6 µM [inhibitor, single point]. For COC(=O)c1ccc2c(=O)n(Cc3ccc(C(=O)NC4CCCC4)cc3)c(=S)[nH]c2c1, the Potency was inconclusive: 3.55 µM [inhibitor, full curve, poor fit]. With CN(Cc1ccccc1)C(=O)c1ccc(NC(=O)Cc2cccc(NC(=O)C3CCCN(C(=O)C4CCCC4)C3)c2)cc1 (stereo not drawn) the Potency was “inactive”. In the case of CCOC(=O)C1=C(COc2ccccc2)NC(=O)NC1c1ccc(Br)cc1 (stereo not drawn), the Potency is reported as “inactive”. In the case of COCc1c(Br)c(C)nc(OCC(=O)N/N=C/c2cc(C)n(-c3ccc([N+](=O)[O-])cc3)c2C)c1C#N, the Potency is reported as inconclusive: 10 µM [inhibitor, partial curve, poor fit]. In the case of COC(=O)c1[nH]c2ccc(C)cc2c1NC(=O)CN1CCC(C)CC1, the Potency is reported as inconclusive: 2.82 µM [inhibitor, full curve]. In the case of Cc1ccc(S(=O)(=O)N(C)CC(=O)OCC(=O)NC(=O)NC(C)C)cc1, the Potency is reported as inconclusive: 3.16 µM [inhibitor, partial curve]. With CCC1Oc2ccc(C)cc2N(CC(=O)NCCCN2CCCCC2CC)C1=O (stereo not drawn) the Potency was “inactive and inconclusive: 31.6 µM [inhibitor, single point]”. For COC(=O)c1c(NC(=O)CSc2nc3ccccc3c(=O)n2-c2ccccc2)sc(C)c1C, the Potency was inconclusive: 2.82 µM [inhibitor, full curve]. With Cc1cc(N2C(=O)c3ccc(C(=O)Nc4ccc(CC(=O)O)cc4)cc3C2=O)no1 the Potency was “inactive”.
